Data from publication PMC12136788.
Some of the results follow.

B1: chr11:96086674:96086675:-_ENSG00000149231_ENST00000278520|hu_hu|FALSE|FALSE (ssRNA)
RNA: GGGAGUUCUACAGUCCGACGAUCUACAUCAGAUAAAAGUUUAAUUAGAGUGUAGAGUGCCACUUCACAGGAAUUAAGAUAAUCAUGUUUUAAACAAAAUAUUUUGCCAUGAAGAUAUAGAUAAAAUGUACAAACAUGUCACAUCAACAGAGGAUUGAGCAUCA
B2: 97191497_97194279_313_CDS_ENSMUSG00000031776_ENSMUST00000034228|mouse|control|control (ssRNA)
RNA: GGGAGUUCUACAGUCCGACGAUCUUCAAAUUCCUGGUAGUACUUGUCCAUGAAGUUUCUCUGCAAUAACUGGAACUCAUCAUCCAUAAUAAUGUCCUCUAAACAUCCAACCACAGCAUCAAAUUCUGCAUCAGAGGCGGAGGACAACAGAGGAUUGAGCAUCA
B3: chr1:158563958:158563959:+_ENSMUSG00000026596_ENSMUST00000166172|mus_mus|FALSE|FALSE (ssRNA)
RNA: GGGAGUUCUACAGUCCGACGAUCUGUCCAUUUAAUAGGAAAUUUGGCUCCAGCAUGAGCAGUGUAGGUAUCUCCAGUCAUCAGUCUACUUAAACCAAAGUCGGCCACUUUCACCACAUGGUUCUCGCCCACUAGGCAGUUCCGCAACAGAGGAUUGAGCAUCA
B4: chr1:231413285:231413286:+_ENSG00000116906_ENST00000366647|hu_hu|motif|central (ssRNA)
RNA: GGGAGUUCUACAGUCCGACGAUCGUUUGUUGUAAUGAGUCCUUCGAUGAGAGUAAUUACGUGACCGAAUUUUCCAUAACGGUUUGUUGAUUAUUAAAGUUUUGCAGUGGCUGGUUUUCCUAUUGGUGUCUUACAACCAAGCAUCAACAGAGGAUUGAGCAUCA
B5: 102631982_102632505_361_5pUTR_ENSG00000166681_ENST00000361298|human|control|control (ssRNA)
RNA: GGGAGUUCUACAGUCCGACGAUCCCUUCACCUCCUCCCAAAGGGCGGUCUUCCUCUCCAUUCUGCAUAGGCUGCUCCAUCUCUUCGUUUUCCUGGGCCUAUCCUUGCAGUCUCCUUCUCCUCCGGAUUCUCGCCGCGAGGUGCCAACAGAGGAUUGAGCAUCA
B6: chr14:76904430:76904431:+_ENSMUSG00000022010_ENSMUST00000022587|mus_mus|mus_mus_mus_hu_True|28_68 (ssRNA)
RNA: GGGAGUUCUACAGUCCGACGAUCUGCAGCCAAAAACACCCUCGUGGAAAAAAAGAGGGAACACCAGCAGCCUGGUUUAAGCUAGAUAAAAUCUUCUGGCUUUCCGCAGCUCAGGGCGAAACAGAAAACGGCAGCCCUAAUUUACAACAGAGGAUUGAGCAUCA
B7: chr14:89307221:89307222:+_ENSG00000165533_ENST00000346301|hu_mus|hu_hu_hu_mus_False|68_68 (ssRNA)
RNA: GGGAGUUCUACAGUCCGACGAUCUCCUGUUUGGUUAGUGCCAGGGAGCUUCAAAGAUGUGCCAGGGCGUGGAACUUGAGCAAUAGCAUUUUCAUCCAGGAUCAUUUCAGCAAUUCCUUCCUGGUCCACAUCAAUUUCAUCUAUCAACAGAGGAUUGAGCAUCA
B8: 83326916_83329933_2518_3pUTR_ENSMUSG00000034832_ENSMUST00000089622|mouse|control|control (ssRNA)
RNA: GGGAGUUCUACAGUCCGACGAUCGAUGCCGCACCAGGCACAGCAGCUUCUCCUCCAGUGUGUGUCUUCGGAUCACCCACUUGGCGAUGGGACAGCCUCGAGAACUCUUCCCCUCCUUGCCCGUGUAGAUGACCUUCUCAAUCCCAACAGAGGAUUGAGCAUCA
B9: chr7:7612872:7612873:+_ENSG00000164654_ENST00000405785|hu_mus|motif|central (ssRNA)
RNA: GGGAGUUCUACAGUCCGACGAUCCUUUGUCAAGGGCUUUGGUUGUUCAGUCAAAGUCAAAACUGGCUUCUCAAAUUUUCGGAGAUCCCAUAUUGCAACCUGACCUUCAUAGAAGGAAGCAACACGAUCGUGGAAGUAAGGGUCCAACAGAGGAUUGAGCAUCA
B10: chr3:141904083:141904084:-_ENSMUSG00000028273_ENSMUST00000029941|mus_hu|FALSE|FALSE (ssRNA)
RNA: GGGAGUUCUACAGUCCGACGAUCGUAUUCAGUUUGCUACUUUGUGUCACCCCUUGCCAUUCUUUUAUCCCCAGUUAAUUAUUAUCUGCAUAUAAUAUAAAUCUGCUAGACCAUAAAUUAACAGCUUUCAGGACAGAUGCCUUGCAACAGAGGAUUGAGCAUCA
B11: chr12:48362563:48362564:+_ENSG00000134291_ENST00000256686|hu_hu|hu_hu_hu_mus_False|18_98 (ssRNA)
RNA: GGGAGUUCUACAGUCCGACGAUCUCCGUCAAGCCCUUCAAGCCCCACUUGCGGGGGAAACUGUAAUCACUUUGUAUGGGGAAGGAAAAGAAACGCCAAAAACUUUCCAAAAAGCGGUUCAAAAAGCAGGCGGGAGGGGGAGGUCAACAGAGGAUUGAGCAUCA
B12: chr14:32000333:32000334:-_ENSMUSG00000021910_ENSMUST00000168206|mus_hu|FALSE|FALSE (ssRNA)
RNA: GGGAGUUCUACAGUCCGACGAUCGUCCCGGAGAUCCAGGUUGACCAGUGAGUAGAGCUUGUGCAGGCCACUCAGACUCUCUAGGAGGUUGCCUGCCAGGUUUAAGGUCUUGAUGUUCCCCAGCUUGGUGUGAAGCCCUUCCAACAACAGAGGAUUGAGCAUCA
B13: chr14:45599971:45599972:-_ENSG00000100442_ENST00000396062|hu_mus|FALSE|FALSE (ssRNA)
RNA: GGGAGUUCUACAGUCCGACGAUCAUAGGCAUUAACCAAAUGGUCCUUAUUAGCAGUCUUGGCAACAUUUUUGAUGUUUCCCAGUAAUUUAUGCUCUGCAAGAAACGAAUCUGAACCGUGAUCCUGCAGAAACUUGAUAAUGUCCAACAGAGGAUUGAGCAUCA
B14: 72380599_72380719_613_CDS_ENSMUSG00000037674_ENSMUST00000093820|mouse|control|control (ssRNA)
RNA: GGGAGUUCUACAGUCCGACGAUCUGGCAGAGCCACCCCGGGGUUGGGGGCGCUGAGGGGAAGCUGCUGAGGGGCAUCGAGCUGCUGUGGUGGCGGCUGUUGUUGUUCCUCUGCCAUCGCUGCUGGAGGGGAGGGAGGGAAGAUCAACAGAGGAUUGAGCAUCA

target: T1, UNK ZnF1-3 (human, UniProt Q9C0B0 31-174); test: nsRBNS (natural sequence RNA bind-n-seq); RBNS binding buffer (assumed for nsRBNS): 25 mM Tris pH 7.5, 150 mM KCl, 3 mM MgCl2, 0.01% Triton X-100, 500 ug/ml BSA, 20 U/ml SUPERase-In, 4 C; UNK is unkempt and MSI1 is Musashi-1; names of the RNAs are library labels; protein concentration not given here; high values mean tight binding
T1 sequence: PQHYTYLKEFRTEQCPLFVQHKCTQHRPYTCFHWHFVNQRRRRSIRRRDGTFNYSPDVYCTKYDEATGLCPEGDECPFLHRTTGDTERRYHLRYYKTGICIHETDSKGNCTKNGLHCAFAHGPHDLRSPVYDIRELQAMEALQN

Row | Binder | binding signal
1 | B1 | 1.7 enrichment R
2 | B2 | 1.44 enrichment R
3 | B3 | 1 enrichment R
4 | B4 | 0.781 enrichment R
5 | B5 | 0.699 enrichment R
6 | B6 | 1.67 enrichment R
7 | B7 | 0.897 enrichment R
8 | B8 | 1.04 enrichment R
9 | B9 | 0.871 enrichment R
10 | B10 | 1.01 enrichment R
11 | B11 | 2.07 enrichment R
12 | B12 | 1.18 enrichment R
13 | B13 | 0.614 enrichment R
14 | B14 | 1.79 enrichment R
